Test results: the supplement of paper PMC10037445
Values joined by “and” are separate entries in the source; they are usually repeats but may differ in a detail not shown here. Identical values can stand only once. In all, about 2,900 compounds were measured (“NF-kB SEAP reporter activity, fold change vs agonist alone”: median about 0.99, highest 2% from about 2.6 on). This is one part of the list.

Experiments:
RAW-Dual [1] = test: NF-kB SEAP reporter activity, fold change vs agonist alone; higher = enhanced NF-kB activity
Outline: (§1)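 After 50 nL of library stock was delivered by pin tool to RAW-Dual macrophages (50,000 cells/well, DMEM, 384-well plates), a PRR agonist was added 1 h later and the plates were kept at 37 °C, 5% CO2. Twenty hours later, IRF was read from supernatant by QuantiLuc luminescence and NF-κB by QuantiBlue absorbance at 620 nm. Reporter activity is stated as fold change over agonist-alone wells. Wells with IncuCyte confluency under 70% of agonist controls in both mask sets were counted as cytotoxic.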

RAW-Dual [2] = test: NF-kB SEAP reporter activity, fold change vs agonist alone; cytotoxicity flag (confluency mask): cytotoxic (confluency <70% of control); higher = enhanced NF-kB activity
Outline: as §1

RAW-Dual [3] = test: NF-kB SEAP reporter activity, fold change vs agonist alone; cytotoxicity flag (confluency mask): not cytotoxic; higher = enhanced NF-kB activity
Outline: as §1

[4] = agonist: ODN 1826 (TLR9) 0.5 ug/mL
[5] = agonist: Pam2CSK4 (TLR2/6) 0.1 ug/mL
[6] = agonist: Pam3CSK4 (TLR2/1) 0.1 ug/mL
[7] = library stock concentration (final ~1000-fold dilution): 10 mM, cytotoxicity flag (confluency mask): cytotoxic (confluency <70% of control), agonist: Imiquimod (TLR7) […]
[8] = library stock concentration (final ~1000-fold dilution): 10 mM, cytotoxicity flag (confluency mask): cytotoxic (confluency <70% of control), agonist: MPLA (TLR4) […]
[9] = library stock concentration (final ~1000-fold dilution): 10 mM, cytotoxicity flag (confluency mask): not cytotoxic, agonist: Imiquimod (TLR7) […]
[10] = library stock concentration (final ~1000-fold dilution): 10 mM, cytotoxicity flag (confluency mask): not cytotoxic, agonist: MPLA (TLR4) […]

Q: Which “NF-kB SEAP reporter activity” value (RAW-Dual [1]; library stock concentration (final ~1000-fold dilution): 20 mM, cytotoxicity flag (confluency mask): cytotoxic (confluency <70% of control), agonist: Imiquimod (TLR7) […]) does the source give for `COc1ccc(C(=O)C=Cc2cc(OC)c(OC)c(OC)c2)cc1OC` here?
A: The value was 0.192.

Q: What about the “NF-kB SEAP reporter activity” value (RAW-Dual [1]; library stock concentration (final ~1000-fold dilution): 20 mM, cytotoxicity flag (confluency mask): cytotoxic (confluency <70% of control), agonist: MPLA (TLR4) […]) of the same compound?
A: The value was 0.302.

Q: For `COc1ccc(C(=O)C=Cc2cc(OC)c(OC)c(OC)c2)cc1OC` (library stock concentration (final ~1000-fold dilution): 20 mM), which “NF-kB SEAP reporter activity” value (RAW-Dual [2]; agonist: LPS (TLR4) 0.1 ug/mL) is on record?
A: The value was 0.326.

Q: What about the “NF-kB SEAP reporter activity” value (RAW-Dual [2]; [4]) of the same compound?
A: The value was 0.215.

Q: And the “NF-kB SEAP reporter activity” value (RAW-Dual [2]; [5])?
A: Its value is 0.0975.

Q: What about the “NF-kB SEAP reporter activity” value (RAW-Dual [2]; [6]) of the same compound?
A: The value was 0.176.

Q: What does the source list for `CN1CCN(C(=O)C2C3CCC(O3)C2C(=O)O)CC1` (stereo not given)?
A: NF-kB SEAP reporter activity (RAW-Dual [1]; library stock concentration (final ~1000-fold dilution): 10 mM water, cytotoxicity flag (confluency mask): not cytotoxic, agonist: Imiquimod (TLR7) […]): 1.21; NF-kB SEAP reporter activity (RAW-Dual [1]; library stock concentration (final ~1000-fold dilution): 10 mM water, cytotoxicity flag (confluency mask): not cytotoxic, agonist: MPLA (TLR4) […]): 1.21

Q: For `CN1CCN(C(=O)C2C3CCC(O3)C2C(=O)O)CC1` (stereo not given) (library stock concentration (final ~1000-fold dilution): 10 mM water), which “NF-kB SEAP reporter activity” value (RAW-Dual [3]; agonist: LPS (TLR4) 0.1 ug/mL) is on record?
A: The value was 2.34.

Q: And the “NF-kB SEAP reporter activity” value (RAW-Dual [3]; [4])?
A: Its value is 1.37.

Q: And the “NF-kB SEAP reporter activity” value (RAW-Dual [3]; [5])?
A: Its value is 1.78.

Q: What about the “NF-kB SEAP reporter activity” value (RAW-Dual [3]; [6]) of the same compound?
A: The value was 1.21.

Q: With `CCCCNc1ncc2c(-c3ccc(CN4CCN(C)CC4)cc3)cn(C3CCC(O)CC3)c2n1.Cl` (stereo not given) as the compound, how does the “NF-kB SEAP reporter activity” value (RAW-Dual [1]; [7]) read?
A: The value was 0.547.

Q: And the “NF-kB SEAP reporter activity” value (RAW-Dual [1]; [8])?
A: The value was 0.322.

Q: What does the source list for `CCCCNc1ncc2c(-c3ccc(CN4CCN(C)CC4)cc3)cn(C3CCC(O)CC3)c2n1.Cl` (stereo not given) (library stock concentration (final ~1000-fold dilution): 10 mM)?
A: NF-kB SEAP reporter activity (RAW-Dual [2]; agonist: LPS (TLR4) 0.1 ug/mL): 0.236; NF-kB SEAP reporter activity (RAW-Dual [2]; [4]): 0.351; NF-kB SEAP reporter activity (RAW-Dual [2]; [5]): 0.128; NF-kB SEAP reporter activity (RAW-Dual [2]; [6]): 0.192

Q: With `COc1ccc(S(=O)(=O)Nc2cc(-c3c(O)ccc4ccccc34)c(O)c3ccccc23)cc1` (library stock concentration (final ~1000-fold dilution): 10 mM) as the compound, how does the “NF-kB SEAP reporter activity” value (RAW-Dual [3]; agonist: LPS (TLR4) 0.1 ug/mL) read?
A: The value was 4.3.

Q: And the “NF-kB SEAP reporter activity” value (RAW-Dual [3]; [4])?
A: The value was 1.09.

Q: What about the “NF-kB SEAP reporter activity” value (RAW-Dual [3]; [5]) of the same compound?
A: The value was 1.29.

Q: What about the “NF-kB SEAP reporter activity” value (RAW-Dual [3]; [6]) of the same compound?
A: Its value is 1.38.

Q: For `COc1ccc(S(=O)(=O)Nc2cc(-c3c(O)ccc4ccccc34)c(O)c3ccccc23)cc1`, which “NF-kB SEAP reporter activity” value (RAW-Dual [1]; [9]) is on record?
A: The value was 1.17.

Q: What about the “NF-kB SEAP reporter activity” value (RAW-Dual [1]; [10]) of the same compound?
A: The value was 1.61.

Q: For `COc1ccc(CC2c3cc(OC)c(OC)cc3CC[N+]2(C)CCC(=O)OCCCCCOC(=O)CC[N+]2(C)CCc3cc(OC)c(OC)cc3C2Cc2ccc(OC)c(OC)c2)cc1OC.O=S(=O)([O-])c1ccccc1.O=S(=O)([O-])c1ccccc1` (stereo not given) (library stock concentration (final ~1000-fold dilution): 10 mM), which “NF-kB SEAP reporter activity” value (RAW-Dual [3]; agonist: LPS (TLR4) 0.1 ug/mL) is on record?
A: Its value is 0.772.

Q: And the “NF-kB SEAP reporter activity” value (RAW-Dual [3]; [4])?
A: Its value is 0.571.

Q: And the “NF-kB SEAP reporter activity” value (RAW-Dual [3]; [5])?
A: The value was 0.511.

Q: And the “NF-kB SEAP reporter activity” value (RAW-Dual [3]; [6])?
A: Its value is 0.748.

Q: With `COc1ccc(CC2c3cc(OC)c(OC)cc3CC[N+]2(C)CCC(=O)OCCCCCOC(=O)CC[N+]2(C)CCc3cc(OC)c(OC)cc3C2Cc2ccc(OC)c(OC)c2)cc1OC.O=S(=O)([O-])c1ccccc1.O=S(=O)([O-])c1ccccc1` (stereo not given) as the compound, how does the “NF-kB SEAP reporter activity” value (RAW-Dual [1]; [9]) read?
A: The value was 0.967.

Q: And the “NF-kB SEAP reporter activity” value (RAW-Dual [1]; [10])?
A: The value was 0.733.

Q: For `O=C(O)C(O)Cc1ccc(O)c(O)c1` (stereo not given) (library stock concentration (final ~1000-fold dilution): 10 mM), which “NF-kB SEAP reporter activity” value (RAW-Dual [3]; agonist: LPS (TLR4) 0.1 ug/mL) is on record?
A: Its value is 1.04.

Q: What about the “NF-kB SEAP reporter activity” value (RAW-Dual [3]; [4]) of the same compound?
A: Its value is 0.964.

Q: What about the “NF-kB SEAP reporter activity” value (RAW-Dual [3]; [5]) of the same compound?
A: The value was 0.768.

Q: What about the “NF-kB SEAP reporter activity” value (RAW-Dual [3]; [6]) of the same compound?
A: The value was 1.02.

Q: Which results are given for `O=C(O)C(O)Cc1ccc(O)c(O)c1` (stereo not given)?
A: NF-kB SEAP reporter activity (RAW-Dual [1]; [9]): 0.927; NF-kB SEAP reporter activity (RAW-Dual [1]; [10]): 1

Q: How did the “NF-kB SEAP reporter activity” value (RAW-Dual [1]; [7]) turn out when `C[n+]1cc2c3c(ccc2c2ccc4cc5c(cc4c21)OCO5)OCO3` was run?
A: The value was 0.141.

Q: What does the source list for `C[n+]1cc2c3c(ccc2c2ccc4cc5c(cc4c21)OCO5)OCO3` (library stock concentration (final ~1000-fold dilution): 10 mM)?
A: NF-kB SEAP reporter activity (RAW-Dual [2]; agonist: LPS (TLR4) 0.1 ug/mL): 0.268 and 0.364; NF-kB SEAP reporter activity (RAW-Dual [2]; [4]): 0.177 and 0.164; NF-kB SEAP reporter activity (RAW-Dual [2]; [6]): 0.137 and 0.144

Q: Which “NF-kB SEAP reporter activity” value (RAW-Dual [1]; [7]) does the source give for `Cc1cc(C)c(Nc2ccnc(Nc3ccc(C#N)cc3)n2)c(C)c1` here?
A: Its value is 0.925.

Q: And the “NF-kB SEAP reporter activity” value (RAW-Dual [1]; [8])?
A: Its value is 1.53.

Q: With `Cc1cc(C)c(Nc2ccnc(Nc3ccc(C#N)cc3)n2)c(C)c1` (library stock concentration (final ~1000-fold dilution): 10 mM) as the compound, how does the “NF-kB SEAP reporter activity” value (RAW-Dual [2]; agonist: LPS (TLR4) 0.1 ug/mL) read?
A: Its value is 0.831.

Q: And the “NF-kB SEAP reporter activity” value (RAW-Dual [2]; [4])?
A: The value was 0.415.

Q: What about the “NF-kB SEAP reporter activity” value (RAW-Dual [2]; [5]) of the same compound?
A: Its value is 0.452.

Q: What about the “NF-kB SEAP reporter activity” value (RAW-Dual [2]; [6]) of the same compound?
A: The value was 0.382.

Q: For `O=C(c1ccc(Nc2nccc(-c3cc4ccccc4s3)n2)cc1)N1CCC(N2CCCC2)CC1` (library stock concentration (final ~1000-fold dilution): 10 mM), which “NF-kB SEAP reporter activity” value (RAW-Dual [2]; agonist: LPS (TLR4) 0.1 ug/mL) is on record?
A: Its value is 0.302 and 0.283.

Q: And the “NF-kB SEAP reporter activity” value (RAW-Dual [2]; [4])?
A: Its value is 0.179 and 0.19.

Q: What about the “NF-kB SEAP reporter activity” value (RAW-Dual [2]; [5]) of the same compound?
A: Its value is 0.0736 and 0.0841.

Q: And the “NF-kB SEAP reporter activity” value (RAW-Dual [2]; [6])?
A: The value was 0.128 and 0.186.
